Screen size: about 310,000 compounds; about 14,000 (4.5%) showed an effect of 50% or more. The effect is printed as a negative number. The list shows a part of the results.
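Also: peak tail current of the secondary pulse compared with the same well before compound.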

In this test the target is human ether-à-go-go-related gene (hERG) potassium channel (human, UniProt Q12809). The test is described as follows: primary screen, population patch clamp on CHO cells stably expressing hERG.
Sequence of human ether-à-go-go-related gene (hERG) potassium channel (Q12809 whole entry, looked up): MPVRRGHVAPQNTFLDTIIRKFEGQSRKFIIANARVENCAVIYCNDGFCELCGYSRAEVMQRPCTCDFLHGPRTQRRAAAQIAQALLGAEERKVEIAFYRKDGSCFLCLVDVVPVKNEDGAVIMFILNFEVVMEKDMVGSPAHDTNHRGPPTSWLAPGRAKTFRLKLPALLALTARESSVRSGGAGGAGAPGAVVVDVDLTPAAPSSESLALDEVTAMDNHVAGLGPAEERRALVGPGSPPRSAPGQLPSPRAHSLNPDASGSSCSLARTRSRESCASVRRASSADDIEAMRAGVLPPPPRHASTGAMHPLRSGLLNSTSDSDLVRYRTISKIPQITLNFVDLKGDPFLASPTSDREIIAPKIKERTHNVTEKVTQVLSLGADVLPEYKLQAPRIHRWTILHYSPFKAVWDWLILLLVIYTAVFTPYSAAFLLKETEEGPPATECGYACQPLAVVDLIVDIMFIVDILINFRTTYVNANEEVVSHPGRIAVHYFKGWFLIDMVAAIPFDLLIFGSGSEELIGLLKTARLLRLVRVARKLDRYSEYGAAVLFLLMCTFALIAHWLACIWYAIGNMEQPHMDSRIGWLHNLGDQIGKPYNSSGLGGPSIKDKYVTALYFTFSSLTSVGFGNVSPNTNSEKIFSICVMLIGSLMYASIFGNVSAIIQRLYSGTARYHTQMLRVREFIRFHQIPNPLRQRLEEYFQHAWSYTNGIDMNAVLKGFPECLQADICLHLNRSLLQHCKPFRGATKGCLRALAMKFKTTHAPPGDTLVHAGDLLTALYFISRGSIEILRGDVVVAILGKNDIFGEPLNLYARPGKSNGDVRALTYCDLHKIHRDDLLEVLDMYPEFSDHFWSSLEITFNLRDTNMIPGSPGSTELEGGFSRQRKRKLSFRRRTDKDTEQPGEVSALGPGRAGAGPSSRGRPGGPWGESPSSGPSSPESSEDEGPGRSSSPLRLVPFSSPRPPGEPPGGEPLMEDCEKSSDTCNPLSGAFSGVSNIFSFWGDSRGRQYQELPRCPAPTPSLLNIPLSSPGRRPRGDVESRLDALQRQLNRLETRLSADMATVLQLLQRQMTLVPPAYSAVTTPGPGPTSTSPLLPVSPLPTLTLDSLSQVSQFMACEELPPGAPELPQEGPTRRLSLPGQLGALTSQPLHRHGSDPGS
For `O=C(Cc1ccccc1)Nc1nnc(-c2cccs2)s1`, the “hERG current change (%, negative = inhibition) at 10uM” value is recorded as -1.98%. As for `Clc1ccccc1Cc1noc(CN2CCSCC2)n1`, the figure is 9.32%. For the compound `Cc1cc(=O)oc(C)c1C(=O)NCCC(C)C`, the “hERG current change (%, negative = inhibition) at 10uM” value is given as -15.3%.

On to `Cc1ccc(CCNC(=O)CCCn2nc(C)c3c(C)n(-c4ccc(C)cc4)nc3c2=O)cc1`, for which the “hERG current change (%, negative = inhibition) at 10uM” value is listed as -28.5%.

On to `Cc1ccc(C(=O)Cn2c(C)cc(C)c(C#N)c2=O)cc1`, for which the “hERG current change (%, negative = inhibition) at 10uM” value amounted to 9.35%.

For the compound `Cc1ccc(CSC2=NCCN2S(=O)(=O)c2ccccc2)cc1`, the “hERG current change (%, negative = inhibition) at 10uM” value came to 1.47%. As for `O=C(Cn1cnc2c(cnn2-c2ccccc2)c1=O)N1CCN(c2ccc(F)cc2)CC1`, the figure is -8.46%; as for `NNc1nc2ccc(F)cc2s1`, -15.7%. As for `O=C(Nc1nc(=O)[nH]s1)c1ccccc1`, the figure is 26.9%.

Take `Cc1nn(-c2nc3ccccc3s2)c(N)c1-c1ccccc1`: the “hERG current change (%, negative = inhibition) at 10uM” value is on record as -2.54%. In the case of `Cn1c(=O)c2c(n(Cc3ccccc3)c1=O)NC(=O)C2CC(=O)O` (stereo not drawn) it was 12.6%; in that of `CC(C)Nc1nnc(SCC(=O)Nc2ccc3c(c2)C(=O)c2ccccc2C3=O)s1`, -2.55%. As for `CC(C)CNC(=S)NNC(=O)CC(C)O` (stereo not drawn), the figure is -7.34%. As for `CCc1nnc(NC(=O)c2ccc(S(=O)(=O)N3CCCc4ccccc43)cc2)o1`, the figure is 15.6%. With `COc1ccc(Br)cc1S(=O)(=O)NCCCN1CCOCC1`, the “hERG current change (%, negative = inhibition) at 10uM” value stood at 25.1%. As to `CCCCSc1nnc(-c2ccccc2NC(C)=O)c(=O)[nH]1`, the “hERG current change (%, negative = inhibition) at 10uM” value is 17%. Take `CCc1ccc(-c2cc(C(=O)Nc3c(C)n(C)n(-c4ccccc4)c3=O)c3ccccc3n2)s1`: the “hERG current change (%, negative = inhibition) at 10uM” value is -9.07%. Turning to `COc1ccc(-n2cc(-c3ccccc3)c3c(NCCOCCO)ncnc32)cc1`, the “hERG current change (%, negative = inhibition) at 10uM” value is -42.9%.

As to `N#Cc1c(-c2cccc(Br)c2)cc(-c2cccnc2)nc1N`, the “hERG current change (%, negative = inhibition) at 10uM” value was 5.45%. As for `Cc1cc(C)nc(NC(=O)c2ccc(C)c(C)c2)n1`, the figure is 18%; as for `COc1ccccc1NC(=S)N/N=C1\CC(C)(C)Oc2ccc(O)cc21`, 0.968%; as for `Cc1cc(C)cc(N(C(=O)c2sc(C)nc2C)C(C(=O)NC(C)(C)C)c2ccncc2)c1` (stereo not drawn), 55.2%. In the case of `Cc1nn(-c2cccc(C(F)(F)F)c2)c(=O)c2ccccc12` it was -17%; in that of `COc1ccccc1Oc1c(C)oc2cc(OC(=O)N(C)C)ccc2c1=O`, -6.85%.

Consider `O=C(CNC(=O)N1CC(=O)Nc2ccccc21)NCc1ccccc1Cl`, for which the “hERG current change (%, negative = inhibition) at 10uM” value was 23.9%. `Cl.O=C(CN1CCCC1)N1c2ccccc2Sc2ccc(Cl)cc21`: the “hERG current change (%, negative = inhibition) at 10uM” value amounted to 0.273%. As for `Cc1ccc(CNC(=O)/C=C/c2c(Cl)cccc2Cl)cc1`, the “hERG current change (%, negative = inhibition) at 10uM” value stood at 1.22%. As for `CC(C)N1C(=O)CCC1C(=O)NCc1cccs1` (stereo not drawn), the figure is 8.77%; as for `Cc1cccc(C2=NCC(=O)N(CC(=O)NCc3ccco3)c3sc4c(c32)CCCC4)c1`, -25.3%. Regarding `O=C(NCc1cccc(F)c1)C1CCC(=O)N(C2CCCC2)C1` (stereo not drawn), the “hERG current change (%, negative = inhibition) at 10uM” value is -5%.

With `O=Cc1cc([N+](=O)[O-])ccc1N1CCN(Cc2ccc3c(c2)OCO3)CC1`, the “hERG current change (%, negative = inhibition) at 10uM” value is given as -67.5%.

Regarding `O=c1[nH]c(SCc2cccc([N+](=O)[O-])c2)nc2[nH]ncc12`, the “hERG current change (%, negative = inhibition) at 10uM” value is listed as -10.6%. As for `COc1cc(C2C(C#N)=C(N)N(c3ccc(F)cc3)C3=C2S(=O)(=O)CC3)ccc1O` (stereo not drawn), the figure is 16.4%; as for `Cc1ccc(C)c(N2CCN(C(=O)c3ccc(CSc4nc5ccncc5[nH]4)cc3)CC2)c1`, -11.4%. For the compound `CCCCn1ccnc1C(=O)c1cccc(S(=O)(=O)N2CC(C)CC(C)C2)c1` (stereo not drawn), the “hERG current change (%, negative = inhibition) at 10uM” value is -14.4%. As to `O=C(CSc1ccsc1[N+](=O)[O-])NCc1ccccc1`, the “hERG current change (%, negative = inhibition) at 10uM” value is reported as -2.29%.

On to `CCCOc1ccccc1C1NC(=O)NC(C)=C1C(=O)OCCOC(C)C` (stereo not drawn), for which the “hERG current change (%, negative = inhibition) at 10uM” value is -6.75%. In the case of `Nc1nc(CSCCO)nc(Nc2ccccc2)n1`, the “hERG current change (%, negative = inhibition) at 10uM” value was found to be 9.39%.

Take `CC(C)(C)NC(=S)N/N=C/c1cccnc1`: the “hERG current change (%, negative = inhibition) at 10uM” value is listed as -25.2%.

For the compound `Cn1c(=O)c2c(nc(NCC(O)CO)n2CCc2ccccc2)n(C)c1=O` (stereo not drawn), the “hERG current change (%, negative = inhibition) at 10uM” value is listed as -5.52%. In the case of `O=C(N/N=C/c1cccc(Oc2ccccc2)c1)c1cccc(O)c1` it was -6.66%; in that of `Cc1cc(Cl)c(S(=O)(=O)N(C)C)cc1OCC(N)=O`, 10.5%; in that of `O=C(Nc1ccc(C(=O)O)cc1)/C(=C\c1ccco1)NC(=O)c1ccc(Br)o1`, 2.41%. As for `O=C(N=C1SC2CS(=O)(=O)CC2N1c1ccccc1F)C1CCCCC1` (stereo not drawn), the figure is 8%; as for `Cc1oc(S(=O)(=O)N(C)C)cc1C(=O)Nc1ccc(Cl)cc1`, 8.63%; as for `COc1ccc(F)cc1S(=O)(=O)N1CCCN(S(=O)(=O)c2cc(F)ccc2OC)CC1`, -13.4%. In the case of `CCOc1cc(C(=O)Nc2c3c(nn2C(C)(C)C)CS(=O)C3)cc(OCC)c1OCC` (stereo not drawn) it was -2.15%; in that of `O=c1[nH]c(=O)n(Cc2ccc(F)cc2)c(O)c1C=Nc1ccc(Cl)cc1`, 5.04%; in that of `CC(c1ccccc1)N1CC(C(=O)Nc2ccc(F)cc2)CC1=O` (stereo not drawn), 4.93%.

On to `CCN1C(=O)/C(=C2/C=Cc3ccccc3N2CC)SC1=S`, for which the “hERG current change (%, negative = inhibition) at 10uM” value is recorded as 11%. For `CC(C)CC(c1nnnn1C1CCCCC1)N1CCN(C(=O)c2ccco2)CC1.Cl` (stereo not drawn), the “hERG current change (%, negative = inhibition) at 10uM” value is given as -44.1%. Take `COC(=O)CCS(=O)(=O)c1ccc(Cl)cc1`: the “hERG current change (%, negative = inhibition) at 10uM” value was 8.83%. Consider `CSc1nc(-c2ccccc2)[nH]c(=S)c1C(C)=O`, for which the “hERG current change (%, negative = inhibition) at 10uM” value is reported as 8.59%. As for `COc1ccc(/C(C)=N\NC(=O)CNC(=O)C(c2ccccc2)c2ccccc2)cc1OC`, the figure is 19%; as for `COc1cccc(CNC(=O)CCS(=O)(=O)c2ccc3c(c2)NC(=O)CO3)c1`, -1.62%; as for `Cc1nonc1NC(=O)CSc1nnc(N)s1`, -4.13%.

For `CCOC(=O)C1CCN(C(=O)COc2ccc(S(=O)(=O)NC(C)(C)C)cc2)CC1`, the “hERG current change (%, negative = inhibition) at 10uM” value turned out to be 2.22%.

These data come from publication PMC4336329 (PLoS ONE, 2015).
